In all, about 110,000 compounds were measured (“z-score”: median about -0.1, highest 2% from about 2 on). The list shows a part of the results.
Each compound was assayed against Metabotropic glutamate receptor 8 (Rattus norvegicus) (UniProt P70579) (assay: mGluR8 Gi/Go-coupled signaling modulation – cell-based, rat, thallium flux, HTS, primary screen (AID 488969)). Conditions: HEK293 rat mGluR8, GIRK (G protein-gated inwardly rectifying potassium channel) thallium flux, FluoZin2; at 10 µM; stronger effect = higher value.
Chain of UniProt P70579 (P70579 whole entry, looked up): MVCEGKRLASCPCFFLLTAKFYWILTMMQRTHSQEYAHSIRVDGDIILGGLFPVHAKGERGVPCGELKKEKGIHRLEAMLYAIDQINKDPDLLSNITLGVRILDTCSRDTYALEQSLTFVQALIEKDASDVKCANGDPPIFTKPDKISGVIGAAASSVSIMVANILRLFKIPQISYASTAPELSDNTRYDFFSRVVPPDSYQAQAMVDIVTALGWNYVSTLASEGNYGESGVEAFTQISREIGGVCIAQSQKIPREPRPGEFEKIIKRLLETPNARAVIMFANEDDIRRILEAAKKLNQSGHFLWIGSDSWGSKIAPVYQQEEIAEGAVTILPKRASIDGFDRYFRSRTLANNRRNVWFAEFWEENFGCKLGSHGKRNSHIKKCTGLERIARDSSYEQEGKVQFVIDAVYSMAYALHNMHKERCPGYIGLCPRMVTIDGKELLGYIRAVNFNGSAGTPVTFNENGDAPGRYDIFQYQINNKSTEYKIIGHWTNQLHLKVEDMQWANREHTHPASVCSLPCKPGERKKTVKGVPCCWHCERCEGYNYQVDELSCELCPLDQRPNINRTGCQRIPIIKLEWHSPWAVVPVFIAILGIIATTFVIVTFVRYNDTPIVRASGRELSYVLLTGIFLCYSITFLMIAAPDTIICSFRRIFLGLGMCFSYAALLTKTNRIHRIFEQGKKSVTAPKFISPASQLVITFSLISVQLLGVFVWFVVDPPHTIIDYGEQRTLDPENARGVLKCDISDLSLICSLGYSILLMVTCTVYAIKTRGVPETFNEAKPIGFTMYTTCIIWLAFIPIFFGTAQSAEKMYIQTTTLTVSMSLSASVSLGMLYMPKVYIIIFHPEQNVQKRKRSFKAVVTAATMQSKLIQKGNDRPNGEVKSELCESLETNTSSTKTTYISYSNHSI
CC(C)(C)c1nc(NCc2ccc3c(c2)OCO3)c2nnn(Cc3ccccc3Cl)c2n1 gave a z-score of -0.271.
With COc1ccc(N2C(=O)CC(=O)NC2=O)cc1 the z-score was 0.662.
COc1ccc2c(c1OC)C(=O)OC2c1c(O)n(C2CCCCC2)c(=O)[nH]c1=O (centres undefined) showed a z-score of -0.0412.
Work on CCOc1ccc(Cc2c(O)[nH]c(=O)[nH]c2=O)cc1 yielded a z-score of 0.236.
CN(C)CCN=Cc1c(O)n(-c2cccc3ccccc23)c(=O)[nH]c1=O gave a z-score of 0.131.
C=CCOC(=O)C1=C(C)OC(N)=C(C#N)C12C(=O)N(CN1CCOCC1)c1ccccc12 (centres undefined) gave a z-score of 0.229.
Work on CCOP(=O)(OCC)C(NC(=O)c1cccc2ccccc12)C(Cl)(Cl)Cl (centres undefined) yielded a z-score of -0.135.
OC(C#CCN1CCOCC1)(c1ccccc1)C1CCCC1 (centres undefined) was tested, and the z-score was 0.256.
In the case of O=C(c1cc2nc(-c3ccccc3)cc(-c3ccccc3)n2n1)N1CCC2(CC1)OCCO2, the z-score is reported as -0.525.
For O=C(c1cc(S(=O)(=O)N2CCCCC2)ccc1F)N1CCC2(CC1)OCCO2, the z-score was -0.0595.
With CCn1c(O)c(C=NCCc2c[nH]c3ccccc23)c(=O)[nH]c1=O the z-score was -0.11.
Work on COC(=O)c1cc2c(s1)=NC=NP=2(N1CCOCC1)N1CCOCC1 yielded a z-score of -0.0368.
CCC(=NCc1ccco1)c1c(O)n(-c2ccccc2)c(=O)[nH]c1=O gave a z-score of 0.931.
Compound CCN1c2nc3ccccn3c(=O)c2CC2(C(=O)N(C)C(=O)N(C)C2=O)C1C (centres undefined) has a z-score of -0.132.
CN(C)C1=NP(N(C)C)(N(C)C)=NC(c2ccccc2)=N1 gave a z-score of -0.205.
COc1cc2[nH]c(=O)n(-c3cccc(Cl)c3)c(=O)c2cc1OC showed a z-score of -0.0317.
With C=C1N2CCC(CC2)C1(O)c1ccc(C)c(C)c1 (centres undefined) the z-score was -0.222.
Work on CCc1ccccc1N1C(=O)NC(=O)/C(=C\c2cc(C)n(C)c2C)C1=O yielded a z-score of -0.0589.
In the case of COc1cc2[nH]c(=O)n(-c3ccc(C)cc3)c(=O)c2cc1OC, the z-score is reported as 0.336.
O=C(C1CC(c2ccc(Cl)c(Cl)c2)=NO1)N1CCC2(CC1)OCCO2 (centres undefined) gave a z-score of 0.509.
In the case of O=C(c1csc2c1CCCCC2)N1CCC2(CC1)OCCO2, the z-score is reported as -0.477.
O=C(C1CCCN(c2nnc(-n3cccc3)s2)C1)N1CCC2(CC1)OCCO2 (centres undefined) gave a z-score of 0.546.
Compound O=C1NC(=O)N(Cc2ccccc2)C(=O)/C1=C\N1CCCc2ccccc21 has a z-score of -0.564.
In the case of CC(C)OP(=O)(OC(C)C)C(O)c1ccc(Br)cc1 (centres undefined), the z-score is reported as -0.199.
O=c1[nH]c(=O)n(Cc2ccc(F)cc2)c(O)c1C=NCCCN1CCOCC1 gave a z-score of -0.214.
For OC(c1ccc(F)cc1)C(c1ccccc1)N1CCOCC1 (centres undefined), the z-score was -0.185.
Compound Cn1cc(C(=O)Cc2ccccc2)c2ccccc21 has a z-score of 0.166.
O=C1NC(=O)C(CCc2ccncc2)(c2ccccc2)C(=O)N1 was tested, and the z-score was -0.000398.
In the case of CCOc1cccc(N2C(=O)CC(=O)NC2=O)c1, the z-score is reported as 0.173.
In the case of CCSc1nnc([C@@H](N)Cc2ccccc2)o1, the z-score is reported as -0.177.
For O=C(C1CC(=O)N(C2CCCCCCC2)C1)N1CCC2(CC1)OCCO2 (centres undefined), the z-score was 0.00735.
Cc1ccc(C2SCC(=O)Nc3c2c(=O)[nH]n3C2CCOC(C)(C)C2)cc1 (centres undefined) was tested, and the z-score was 0.0997.
In the case of CCN1CCC2(CC1)NC(CO)(CO)CO2, the z-score is reported as -0.359.
Work on COc1ccc(CCNCc2ccc(OC)c(OC)c2OC)cc1 yielded a z-score of 1.08.
Work on C=CCn1c(O)c(C(C)=NCCCN2CCOCC2)c(=O)[nH]c1=O yielded a z-score of 0.131.
Compound O=C(Nc1ccc(Cl)cc1C(=O)c1ccccc1)c1ccccc1 has a z-score of -0.198.
With O=C(C(Cc1ccccc1)NS(=O)(=O)c1ccc(F)cc1)N1CCC2(CC1)OCCO2 (centres undefined) the z-score was -0.216.
Compound COCCCNC(=O)c1c(NC(=O)c2ccco2)n(Cc2ccccc2)c2nc3ccccc3nc12 has a z-score of -1.51.
With O=C1C2(c3ccccc3)CN3CN(C2)CC1(c1ccccc1)C3 the z-score was -0.161.
CCCCn1c(N)c(C(=O)NCc2cccs2)c2nc3ccccc3nc21 showed a z-score of -0.414.
CNC(=O)Oc1ccc(-c2cn3cc(C)ccc3n2)cc1 gave a z-score of -0.0606.
Work on CCN(CC)c1ccc(N=Cc2c(O)n(Cc3ccccc3)c(=O)[nH]c2=O)cc1 yielded a z-score of 0.207.
Nc1c(C(=O)NCc2ccco2)c2nc3ccccc3nc2n1Cc1ccc(F)cc1 was tested, and the z-score was -0.108.
Work on O=C(COc1ccc2ccccc2c1)N1CCN(C2CCN(Cc3ccccc3)CC2)CC1 yielded a z-score of 1.81.
Work on CCOP(=O)(OCC)C(O)c1ccc(OC)c(OC)c1 (centres undefined) yielded a z-score of -0.178.
N=c1n(CCO)c2ccccc2n1Cc1ccccc1 showed a z-score of -0.122.
OCCOCC#CCN1CCOCC1 gave a z-score of 0.86.
For c1cc2c(cc1CCNC1CCCCCC1)OCO2, the z-score was 0.232.
CCN(CC)c1ccc(N=Cc2c(O)n(-c3ccc(Cl)cc3)c(=O)[nH]c2=O)cc1 was tested, and the z-score was 0.126.
CCCCn1c(O)c(C(CC)=NCCN2CCOCC2)c(=O)[nH]c1=O gave a z-score of 0.0562.
CN1CCC(O)(c2ccccc2)C2CCCC21 (centres undefined) gave a z-score of 0.541.
Compound COc1ccc(CC(=O)N2CCN(C)CC2)cc1OC has a z-score of 0.142.
With CCC(C)(C)n1nnnc1C(c1cccs1)N1CC=C(c2ccc(F)cc2)CC1 (centres undefined) the z-score was 0.138.
CC(=O)CC(C)(C)n1c[n+](C)nn1 showed a z-score of -0.0491.

— PubChem BioAssay AID488969 (Vanderbilt High Throughput Screening Facility, 2010)
